Experimental data published in PubChem BioAssay AID1768 (National Center for Advancing Translational Sciences (NCATS), 2009).
Out of some 270,000 compounds screened, about 620 (0.23%) were called active. The inconclusive results got no clear call from the source; some entries with a clear call stand among them for comparison. Calls follow the shape of the dose curve; as a rule, active = well fitted inhibition curve with a large enough effect in the polarisation, with a control signal flat (not every such curve was filed as active); inconclusive = small, poorly fitted or top-dose-only effect, or effect the other way, or a change in a side signal; inactive = no such curve, though single readings can be large or run the other way; the % refers to the polarisation. Potencies beside an inconclusive call are fits to weak or partial responses and may not hold up. “Side channel” marks fits to a control or component signal instead of the main read-out.

Each molecule was assayed against Menin (Homo sapiens) (UniProt O00255) (assay: qHTS Assay for Inhibitors Targeting the Menin-MLL Interaction in MLL Related Leukemias: Competition With Texas Red Labeled MLL-derived Mutant Peptide). Conditions: fluorescence polarization; series mostly up to 61.6 µM.
Potency is read from the fitted curve at half-maximal effect; tags tell the direction and shape of the fitted curve or compound fluorescence and quenching.

Sequence of UniProt O00255 (O00255 whole entry, looked up): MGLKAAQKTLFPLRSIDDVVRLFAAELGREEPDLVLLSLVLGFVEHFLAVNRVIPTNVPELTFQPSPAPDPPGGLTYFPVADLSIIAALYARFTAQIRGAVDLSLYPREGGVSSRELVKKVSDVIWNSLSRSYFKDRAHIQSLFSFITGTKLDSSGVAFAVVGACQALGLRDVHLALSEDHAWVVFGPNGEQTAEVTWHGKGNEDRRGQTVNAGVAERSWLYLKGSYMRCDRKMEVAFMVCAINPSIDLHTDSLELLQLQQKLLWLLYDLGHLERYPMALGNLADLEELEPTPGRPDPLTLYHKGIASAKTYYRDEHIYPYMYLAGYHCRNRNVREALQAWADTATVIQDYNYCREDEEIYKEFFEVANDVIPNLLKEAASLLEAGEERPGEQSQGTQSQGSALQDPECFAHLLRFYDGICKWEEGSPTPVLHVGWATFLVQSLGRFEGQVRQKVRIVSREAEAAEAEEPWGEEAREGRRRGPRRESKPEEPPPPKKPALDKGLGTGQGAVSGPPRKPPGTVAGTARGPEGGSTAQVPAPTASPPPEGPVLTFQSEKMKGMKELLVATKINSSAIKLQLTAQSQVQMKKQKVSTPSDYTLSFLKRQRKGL

Structure (SMILES)	Potency
Cc1ccc(-c2c(C)sc(=NC(=O)c3ccco3)n2C)cc1	inconclusive: 3.55 µM [fluorescent, side channel, full curve]
Cc1ccc(NC(=O)Cn2c(=O)n(CCCC(=O)NCc3ccco3)c(=O)c3ccccc32)cc1	inconclusive: 39.8 µM [inhibitor, single point]
Cc1nc(-c2cccnc2)sc1C(=O)Nc1ccc(Cl)cc1	inconclusive: 35.5 µM [quencher, side channel, single point]
COc1ccccc1CNS(=O)(=O)c1ccc(S(=O)(=O)NC2CC2)cc1	inconclusive: 35.5 µM [fluorescent, side channel, single point]
CCCC(=O)Nc1ccc(C(=O)Nc2ccc([N+](=O)[O-])cc2OC)cc1	inconclusive: 20 µM [quencher, partial curve]
N#Cc1cn(CCOc2ccccc2F)c2ccccc12	inconclusive: 22.4 µM [quencher, side channel, single point]
Cc1ccccc1C(=O)NN(C)c1nc2ccccc2nc1C(F)(F)F	inconclusive: 39.8 µM [inhibitor, single point]
Cc1ccc(-c2cn(S(=O)(=O)c3cccc4nsnc34)nc2N)cc1	inconclusive: 28.2 µM [quencher, side channel, single point]
[2H]c1c([2H])c([2H])c(C(=O)c2sc(N3CCCCCC3)nc2-c2ccccc2)c([2H])c1[2H]	inconclusive: 3.55 µM [inhibitor, full curve]
COc1ccc(-c2cc(-c3ccccc3)nc(SCC(=O)Nc3ncc(C)s3)c2C#N)cc1	inconclusive: 8.91 µM [inhibitor, full curve, poor fit]
CC(=O)N(Cc1nc2sc(C)c(C)c2c(=O)[nH]1)C1CCCC1	inconclusive: 3.98 µM [fluorescent, side channel, full curve]
COc1cc(OC)c2c(c1C(CCN1CCN(c3ccccc3)CC1)c1ccc(N(C)C)cc1)OC(=O)CC2c1ccc(N(C)C)cc1 (configuration not stated)	inactive
COc1ccccc1CC(=O)NC12CC3CC(CC(C3)C1)C2	inconclusive: 12.6 µM [fluorescent, side channel, partial curve]
CC(=O)Nc1ccc(C(=O)CSc2nc3ccc(C)cc3[nH]2)cc1	inconclusive: 31.6 µM [quencher, side channel, single point]
CC1CC=CC2C1C(=O)N(Cc1ccccc1)C2c1ccc(F)c(Br)c1 (configuration not stated)	inconclusive: 8.91 µM [inhibitor, single point]
CSc1ccc(CN2CCC(CO)(Cc3ccc(Cl)cc3)CC2)cc1	inactive
COc1ccccc1/C=C/C(=O)N1CCOCC1	inactive
Cc1ccc(C(=O)NC(=S)NNC(=O)c2ccccc2O)cc1	inconclusive: 20 µM [quencher, side channel, partial curve]
CCO[C@H]1OC(C(=O)N2CCN(Cc3ccc4c(c3)OCO4)CC2)=C[C@@H](C(C)(C)C)[C@@H]1CCCO	inconclusive: 2.82 µM [fluorescent, side channel, full curve]

Structure (SMILES)	Potency
Cc1ccc2nc(SCC(=O)c3c[nH]c4ccccc34)[nH]c2c1	inconclusive: 39.8 µM [inhibitor, single point]
COc1cccc(Nc2ncc3nc(-c4ccccc4)c(=O)n(C4CC4)c3n2)c1	inconclusive: 3.55 µM [quencher, side channel, full curve]
O=C(Nc1sc2c(c1C(=O)O)CCCC2)c1ccccc1Cl	inconclusive: 28.2 µM [quencher, side channel, single point]
O=C(N/N=C/c1c[nH]c2ccccc12)c1ccc(Br)cc1	inconclusive: 15.8 µM [quencher, side channel, partial curve]
O=c1c(O)c(-c2ccc(O)c(O)c2)oc2c(OC3OC(CO)C(O)C(O)C3O)c(O)cc(O)c12 (configuration not stated)	inconclusive: 22.4 µM [quencher, side channel, single point]
COc1ccc(NC(=O)c2ccc(-c3ccc(-c4noc(C)n4)cc3C)cc2)cc1OCCN(C)C	inconclusive: 7.08 µM [fluorescent, side channel, full curve]
O=C(Cn1cnc2c(nnn2-c2cccc(F)c2)c1=O)Nc1ccc2c(c1)OCCO2	inconclusive: 39.8 µM [fluorescent, side channel, single point]
CCC1=NN(C(=O)c2ccccc2O)C(O)(c2ccccc2)C1 (configuration not stated)	inconclusive: 12.6 µM [quencher, side channel, partial curve]
CCOc1ccc(N(CC(=O)NCc2ccco2)S(=O)(=O)c2ccc(OC)c(OC)c2)cc1	inconclusive: 12.6 µM [inhibitor, partial curve]
COc1ccc2c(c1)-c1nc(NC(=O)c3ccco3)sc1CC2	inconclusive: 39.8 µM [quencher, side channel, single point]
CC(=O)Nc1nc2c(ncn2COCCOC(C)=O)c(=O)[nH]1	inconclusive: 44.7 µM [inhibitor, partial curve, poor fit]
Cn1c(SCC(=O)NC(C)(C)C)nnc1-c1cnccn1	inconclusive: 25.1 µM [inhibitor, single point]
COc1ccc(NC(=O)C(=O)NNC(=O)COc2ccc(Cl)cc2)c(OC)c1	inconclusive: 20 µM [quencher, side channel, partial curve]
O=C1C(Cl)=C(N2CCCCCC2)C(=O)N1c1ccc(Cl)cc1	inactive
CCOC(=O)N1CCN(C(=O)C2CCN(C(=O)c3ccc(C(C)(C)C)cc3)CC2)CC1	inconclusive: 7.94 µM [fluorescent, side channel, partial curve]
Cc1oc2c(CN3CCCCC3)c(O)ccc2c(=O)c1-c1ccc(Cl)cc1	inconclusive: 15.8 µM [inhibitor, partial curve]
COc1cccc(/C=C/C(=O)Nc2cccc(C(C)=O)c2)c1OC	inactive
Cc1ccc(S(=O)(=O)Nc2nc(C)c(NC(=O)Nc3ccc(Cl)cc3Cl)s2)cc1	inconclusive: 28.2 µM [quencher, side channel, single point]
